Activity calls are given as the source filed them. Unless noted, calls come from the whole dose curve; as a rule, active = well fitted curve in the direction sought with a large enough effect in the repeat runs; inconclusive = weak or mixed curves; inactive = no such curve, though single readings can be large; an effect the other way counts as inactive or inconclusive.
Columns and labels:
[1] = qHTS assay for small molecule agonists of the p53 signaling pathway (AID 651631; calls by dose curve; note: nearly all actives have a fitted effect of over 15% in size; note: potency is the fitted concentration of half-maximal effect); details: HCT-116 p53RE-bla reporter, beta-lactamase FRET ratio, 16 h; activation: at 73.3 µM (top of the series) unless noted
Summary of the method: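 Quantitative high-throughput format: 4,000 p53RE-bla HCT-116 cells/well, 5 h pre-incubation, 16 h compound exposure at 37 °C, 2 h room-temperature substrate step, fluorescence intensity measured.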

[2] = qHTS assay for small molecules that induce genotoxicity in human embryonic kidney cells expressing luciferase-tagged ATAD5 (AID 651632); note: potency is the fitted concentration of half-maximal effect; nearly all actives have a fitted effect of over 15% in size
Summary of the method: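 HEK293T cells carrying luciferase-tagged ATAD5 were given compound or DMSO vehicle and incubated 16 hr at 37C, 5% CO2. Luciferase activity was read after 30 min at room temperature with Amplite; a rise signals genotoxic stress.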

[3] = qHTS assay for small molecules that induce genotoxicity in human embryonic kidney cells expressing luciferase-tagged ATAD5 - cell viability (AID 651634; calls by dose curve; note: nearly all actives have a fitted effect of over 25% in size; note: potency is the fitted concentration of half-maximal effect)
Summary of the method: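 HEK293T cells carrying luciferase-tagged ATAD5, 2,000 cells/well, exposed to compound for 15.5 hr at 37C. Viability read as live-cell protease activity by CellTiter-Fluor fluorescence after 30 min at 37C.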

[4] = qHTS assay for small molecule disruptors of the mitochondrial membrane potential (AID 720635); details: HepG2 mitochondrial membrane potential, Mito-MPS dye ratio; ratio activity, negative = MMP loss: at 83.2 µM (top of the series) unless noted; note: potency is the fitted concentration of half-maximal effect
Summary of the method: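 Mitochondrial membrane potential tracked with Mito-MPS dye, red aggregates (ex 540/em 590 nm) against green monomers (ex 490/em 535 nm). Compound treatment 1 hr at 37C, dye 30 min in HepG2.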

[5] = target: Glucocorticoid receptor (Homo sapiens) (UniProt P04150); experiment: qHTS assay to identify small molecule antagonists of the glucocorticoid receptor (GR) signaling pathway (AID 720692; active = well fitted inhibition curve with a large enough effect in the signal ratio in the repeat runs, not every such curve was filed as active; inconclusive = weak or mixed curves, or effect the other way; inactive = no such curve, though single readings can be large or run the other way; the % refers to the signal ratio; note: potency is the fitted concentration of half-maximal effect; for activity change, negative = inhibition: % is set by controls: 0 for no effect and ±100 for the full control effect); details: GR-bla HeLa, beta-lactamase FRET ratio, dexamethasone-stimulated, 18 h; activity change, negative = inhibition: at 58.5 µM (top of the series) unless noted
Sequence of UniProt P04150 (P04150 whole entry, looked up): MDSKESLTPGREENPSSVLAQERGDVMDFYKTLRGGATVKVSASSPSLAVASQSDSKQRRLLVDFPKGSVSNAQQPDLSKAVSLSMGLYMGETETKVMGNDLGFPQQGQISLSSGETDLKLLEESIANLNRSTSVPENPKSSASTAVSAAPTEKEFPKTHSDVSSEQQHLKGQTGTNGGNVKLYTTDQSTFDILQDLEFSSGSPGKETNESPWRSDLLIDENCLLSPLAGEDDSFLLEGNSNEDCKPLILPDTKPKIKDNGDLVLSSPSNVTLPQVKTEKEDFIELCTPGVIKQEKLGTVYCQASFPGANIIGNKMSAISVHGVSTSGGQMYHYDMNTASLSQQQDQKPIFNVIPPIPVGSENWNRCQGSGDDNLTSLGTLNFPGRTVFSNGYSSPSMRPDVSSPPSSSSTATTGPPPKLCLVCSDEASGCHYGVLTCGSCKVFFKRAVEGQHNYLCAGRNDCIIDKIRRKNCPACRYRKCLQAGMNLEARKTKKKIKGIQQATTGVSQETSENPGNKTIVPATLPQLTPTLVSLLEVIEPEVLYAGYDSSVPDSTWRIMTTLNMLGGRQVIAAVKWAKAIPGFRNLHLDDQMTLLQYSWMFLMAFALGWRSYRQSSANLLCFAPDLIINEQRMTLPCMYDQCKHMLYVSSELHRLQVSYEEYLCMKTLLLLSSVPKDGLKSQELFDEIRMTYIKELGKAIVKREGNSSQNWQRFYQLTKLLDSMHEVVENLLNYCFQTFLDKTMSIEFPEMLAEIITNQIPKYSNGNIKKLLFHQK
Summary of the method: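 GR-bla HeLa cells carrying a GRE-driven beta-lactamase reporter received compound after 4 h plating, then dexamethasone (5 nM final). After 18 h at 37C, the FRET substrate was loaded for 2 h at room temperature and fluorescence read.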

[6] = qHTS assay to identify small molecule antagonists of the glucocorticoid receptor (GR) signaling pathway - cell viability counter screen (AID 720693); details: GR-bla HeLa viability, CellTiter-Glo luminescence, 18 h, with 5 nM dexamethasone present; viability change, negative = cytotoxic: at 58.5 µM (top of the series); note: % is set by controls: 0 for no effect and ±100 for the full control effect; nearly all actives have a fitted effect of over 55% in size
[7] = qHTS assay for identifying genotoxic compounds that show differential cytotoxicity against isogenic chicken DT40 cell lines with known DNA damage response pathways - Rev3 mutant cell line (AID 743014); details: chicken DT40 Rev3-/- viability, CellTiter-Glo, 40 h; activity, negative = cytotoxicity: at 68.4 µM (top of the series) unless noted; note: potency is the fitted concentration of half-maximal effect; nearly all actives have a fitted effect of over 55% in size
[8] = qHTS assay for identifying genotoxic compounds that show differential cytotoxicity against isogenic chicken DT40 cell lines with known DNA damage response pathways - Rad54/Ku70 mutant cell line (AID 743015); details: DT40 Rad54/Ku70 mutant viability, CellTiter-Glo, 40 h; activity change, negative = cytotoxicity: at 66.8 µM (top of the series) unless noted; note: potency is the fitted concentration of half-maximal effect; nearly all actives have a fitted effect of over 60% in size
Aromatase (Homo sapiens) = Aromatase (Homo sapiens) (UniProt P11511); experiment: qHTS assay to identify aromatase inhibitors (AID 743083); note: nearly all actives have a fitted effect of over 55% in size; note: potency is the fitted concentration of half-maximal effect; for activity, negative = inhibition: % is set by controls: 0 for no effect and ±100 for the full control effect
Sequence of UniProt P11511 (P11511 whole entry, looked up): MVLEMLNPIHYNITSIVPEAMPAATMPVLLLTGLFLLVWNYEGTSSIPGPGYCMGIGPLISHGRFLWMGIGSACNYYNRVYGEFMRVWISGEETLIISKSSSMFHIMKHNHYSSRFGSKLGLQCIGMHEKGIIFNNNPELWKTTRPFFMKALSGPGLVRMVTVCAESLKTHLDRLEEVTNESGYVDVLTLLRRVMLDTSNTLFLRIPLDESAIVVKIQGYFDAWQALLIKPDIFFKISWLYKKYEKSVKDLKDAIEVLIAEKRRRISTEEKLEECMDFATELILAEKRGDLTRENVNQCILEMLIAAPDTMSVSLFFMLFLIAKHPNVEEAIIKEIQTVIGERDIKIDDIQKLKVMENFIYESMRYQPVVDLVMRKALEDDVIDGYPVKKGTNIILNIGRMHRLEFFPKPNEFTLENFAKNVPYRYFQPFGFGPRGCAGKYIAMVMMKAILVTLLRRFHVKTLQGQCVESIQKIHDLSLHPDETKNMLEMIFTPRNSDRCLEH

[9] = target: Nuclear receptor subfamily 1 group I member 2 (Rattus norvegicus) (UniProt Q9R1A7); experiment: Rat pregnane X receptor (rPXR) activation by small molecules, qHTS assay (AID 1346983); details: rPXR luciferase reporter cells, One-Glo luminescence, 24 h; max activation: stronger effect = higher value; note: potency is the fitted concentration of half-maximal effect; nearly all actives have a fitted effect of over 20% in size
Sequence of UniProt Q9R1A7 (Q9R1A7 whole entry, looked up): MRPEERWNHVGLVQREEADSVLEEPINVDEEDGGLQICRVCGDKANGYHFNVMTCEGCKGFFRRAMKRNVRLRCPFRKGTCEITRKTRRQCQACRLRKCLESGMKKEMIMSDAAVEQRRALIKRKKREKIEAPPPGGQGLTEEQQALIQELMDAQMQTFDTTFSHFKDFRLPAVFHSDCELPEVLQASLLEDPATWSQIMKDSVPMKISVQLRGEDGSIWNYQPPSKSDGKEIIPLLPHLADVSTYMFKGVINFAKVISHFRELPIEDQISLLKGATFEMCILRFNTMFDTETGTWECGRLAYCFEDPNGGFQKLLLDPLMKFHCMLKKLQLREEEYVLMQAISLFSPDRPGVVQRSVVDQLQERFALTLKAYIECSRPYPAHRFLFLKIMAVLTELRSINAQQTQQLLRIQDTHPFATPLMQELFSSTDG
Summary of the method: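 Luminescent readout (One-Glo luciferase, 30 min room temperature) followed 24 hr compound treatment at 37 C of rPXR cells plated 2,000 per well and preincubated 5hr; qHTS format with compounds delivered in DMSO.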

[10] = target: Nuclear receptor subfamily 1 group I member 2 (Homo sapiens) (UniProt O75469); experiment: Human pregnane X receptor (PXR) activation by small molecules, qHTS assay (AID 1346985); note: potency is the fitted concentration of half-maximal effect; nearly all actives have a fitted effect of over 40% in size
Summary of the method: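 DPX-2 cells (HepG2 co-transfected with a PXR response element and a CYP3A4-promoter luciferase construct) were seeded at 2,000 per well, rested 5 hr at 37C, then exposed to DMSO-dissolved compounds for 24 hr. Activation was read as luciferase luminescence.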

[11] = target: Glucocorticoid receptor (Homo sapiens) (UniProt P04150); experiment: qHTS assay to identify small molecule agonists of the glucocorticoid receptor (GR) signaling pathway (AID 720691; active = well fitted activation curve with a large enough effect in the signal ratio in the repeat runs, not every such curve was filed as active; inconclusive = weak or mixed curves, or effect the other way; inactive = no such curve, though single readings can be large or run the other way; the % refers to the signal ratio; note: potency is the fitted concentration of half-maximal effect); details: GR-bla HeLa, beta-lactamase reporter ratio, 18 h; activation: at 62.4 µM (top of the series) unless noted
Summary of the method: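 GR-bla HeLa cells carrying a GRE-driven beta-lactamase reporter, exposed to compounds for 18 h at 37 C. Reporter activation read as fluorescence after 2 h with LiveBLAzer B/G FRET substrate at room temperature.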

[12] = target: Androgen receptor (Homo sapiens) (UniProt P10275); experiment: qHTS assay to identify small molecule antagonists of the androgen receptor (AR) signaling pathway (AID 743035; active = well fitted inhibition curve with a large enough effect in the signal ratio in the repeat runs, not every such curve was filed as active; inconclusive = weak or mixed curves, or effect the other way; inactive = no such curve, though single readings can be large or run the other way; the % refers to the signal ratio; note: % is set by controls: 0 for no effect and ±100 for the full control effect); details: HEK293 AR-UAS-bla, R1881-stimulated, beta-lactamase FRET, 16 h; activity change, negative = inhibition: at 58.5 µM (top of the series) unless noted
Sequence of UniProt P10275 (P10275 whole entry, looked up): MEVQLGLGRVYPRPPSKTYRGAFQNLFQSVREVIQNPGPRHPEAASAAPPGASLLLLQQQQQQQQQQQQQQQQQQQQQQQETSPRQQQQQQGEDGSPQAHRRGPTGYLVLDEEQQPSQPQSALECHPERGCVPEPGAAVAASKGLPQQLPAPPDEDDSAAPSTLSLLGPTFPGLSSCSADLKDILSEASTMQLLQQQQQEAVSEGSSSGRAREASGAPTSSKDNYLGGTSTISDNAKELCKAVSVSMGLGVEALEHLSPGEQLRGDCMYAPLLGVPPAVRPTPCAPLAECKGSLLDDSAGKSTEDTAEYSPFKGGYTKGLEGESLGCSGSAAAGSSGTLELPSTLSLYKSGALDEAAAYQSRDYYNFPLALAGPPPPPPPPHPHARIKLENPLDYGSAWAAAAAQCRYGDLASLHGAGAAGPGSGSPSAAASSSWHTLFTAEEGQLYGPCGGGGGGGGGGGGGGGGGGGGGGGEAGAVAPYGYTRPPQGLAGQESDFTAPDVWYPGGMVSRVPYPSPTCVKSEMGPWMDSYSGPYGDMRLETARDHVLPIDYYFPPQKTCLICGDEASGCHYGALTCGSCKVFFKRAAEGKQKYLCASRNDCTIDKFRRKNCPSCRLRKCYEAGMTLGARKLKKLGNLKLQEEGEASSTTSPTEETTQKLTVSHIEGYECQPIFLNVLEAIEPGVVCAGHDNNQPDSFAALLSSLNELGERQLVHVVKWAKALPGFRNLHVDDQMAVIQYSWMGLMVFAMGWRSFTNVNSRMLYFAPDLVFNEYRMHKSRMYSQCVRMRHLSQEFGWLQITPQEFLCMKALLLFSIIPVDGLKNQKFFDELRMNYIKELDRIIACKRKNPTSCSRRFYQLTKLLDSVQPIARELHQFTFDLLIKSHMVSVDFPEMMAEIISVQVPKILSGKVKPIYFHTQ
Summary of the method: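 HEK293 cells stably carrying UAS-beta-lactamase reporter, 2,000/well, given compounds plus R1881 agonist and incubated 16 h at 37C. LiveBLAzer B/G FRET substrate then added for 2 h at room temperature before fluorescence reading.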

[13] = target: Androgen receptor (Homo sapiens) (UniProt P10275); experiment: qHTS assay to identify small molecule agonists of the androgen receptor (AR) signaling pathway (AID 743036; active = well fitted activation curve with a large enough effect in the signal ratio in the repeat runs, with a control signal flat, not every such curve was filed as active; inconclusive = weak or mixed curves, or effect the other way; inactive = no such curve, though single readings can be large or run the other way; the % refers to the signal ratio; note: potency is the fitted concentration of half-maximal effect); details: HEK293 AR-UAS-bla GripTite, beta-lactamase FRET ratio, 16 h; activation: at 62.4 µM (top of the series) unless noted
Summary of the method: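 Beta-lactamase under UAS control, stably integrated in HEK293 GripTite cells, reports receptor activation. After 16 h compound treatment, cells received FRET substrate for 2 h at room temperature before fluorescence reading.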

[14] = target: Estrogen receptor (Homo sapiens) (UniProt P03372); experiment: qHTS assay to identify small molecule antagonists of the estrogen receptor alpha (ER-alpha) signaling pathway (AID 743069; active = well fitted curve in the direction sought with a large enough effect in the signal ratio in the repeat runs, not every such curve was filed as active; inconclusive = weak or mixed curves, or effect the other way; inactive = no such curve, though single readings can be large or run the other way; the % refers to the signal ratio; note: potency is the fitted concentration of half-maximal effect); details: HEK293 ER-alpha-UAS-bla, beta-lactamase ratio, antagonist mode; activity, negative = inhibition: at 69.4 µM (top of the series) unless noted
Sequence of UniProt P03372 (P03372 whole entry, looked up): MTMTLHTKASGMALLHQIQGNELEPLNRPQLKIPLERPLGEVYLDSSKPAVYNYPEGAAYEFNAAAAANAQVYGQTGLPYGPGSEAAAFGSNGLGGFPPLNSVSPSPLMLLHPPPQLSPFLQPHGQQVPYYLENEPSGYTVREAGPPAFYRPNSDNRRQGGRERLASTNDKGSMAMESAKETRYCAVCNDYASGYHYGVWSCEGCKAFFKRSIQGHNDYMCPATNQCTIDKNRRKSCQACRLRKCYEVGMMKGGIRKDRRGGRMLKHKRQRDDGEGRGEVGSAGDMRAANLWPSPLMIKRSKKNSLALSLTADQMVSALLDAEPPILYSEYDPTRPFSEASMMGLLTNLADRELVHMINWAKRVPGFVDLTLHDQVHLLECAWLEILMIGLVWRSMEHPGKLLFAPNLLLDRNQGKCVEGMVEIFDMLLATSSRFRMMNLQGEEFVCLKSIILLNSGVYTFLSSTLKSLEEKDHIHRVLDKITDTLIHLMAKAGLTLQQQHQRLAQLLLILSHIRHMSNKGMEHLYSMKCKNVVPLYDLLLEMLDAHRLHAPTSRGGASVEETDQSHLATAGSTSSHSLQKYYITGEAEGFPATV
Summary of the method: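 Compound effects are measured against 17beta-estradiol stimulation in HEK293 cells with a UAS-controlled beta-lactamase reporter for ER-alpha. Exposure lasts 18 hr at 37C; LiveBLAzer B/G FRET substrate follows for 2 hr at room temperature.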

[15] = target: Estrogen receptor (Homo sapiens) (UniProt P03372); experiment: qHTS assay to identify small molecule agonists of the estrogen receptor alpha (ER-alpha) signaling pathway using the BG1 cell line (AID 743079); details: BG1Luc4E2 cells, ERE-luciferase agonist, 22 h; activation: at 70.3 µM (top of the series) unless noted; note: potency is the fitted concentration of half-maximal effect; nearly all actives have a fitted effect of over 20% in size
[16] = qHTS assay to identify small molecule antagonists of the estrogen receptor alpha (ER-alpha) signaling pathway using the BG1 cell line (AID 743080; calls by dose curve;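 note: BG1 cells stimulated with 17beta-estradiol alongside compound; potency is the fitted concentration of half-maximal effect; nearly all actives have a fitted effect of over 25% in size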); details: BG1Luc4E2 ERE-luciferase antagonist mode, luminescence; activity change, negative = inhibition: at 70.3 µM (top of the series) unless noted
Summary of the method: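 Readout is ONE-Glo luminescence, taken 30 min at room temperature after reagent addition, preceded by a CellTiter-Fluor viability read; BG1-Luc-4E2 cells had received compound and 17beta-estradiol for 21.5 h at 37 C.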

[17] = target: Aryl hydrocarbon receptor (Homo sapiens) (UniProt P35869); experiment: qHTS assay to identify small molecule that activate the aryl hydrocarbon receptor (AhR) signaling pathway (AID 743085); note: potency is the fitted concentration of half-maximal effect; nearly all actives have a fitted effect of over 15% in size
Sequence of UniProt P35869 (P35869 whole entry, looked up): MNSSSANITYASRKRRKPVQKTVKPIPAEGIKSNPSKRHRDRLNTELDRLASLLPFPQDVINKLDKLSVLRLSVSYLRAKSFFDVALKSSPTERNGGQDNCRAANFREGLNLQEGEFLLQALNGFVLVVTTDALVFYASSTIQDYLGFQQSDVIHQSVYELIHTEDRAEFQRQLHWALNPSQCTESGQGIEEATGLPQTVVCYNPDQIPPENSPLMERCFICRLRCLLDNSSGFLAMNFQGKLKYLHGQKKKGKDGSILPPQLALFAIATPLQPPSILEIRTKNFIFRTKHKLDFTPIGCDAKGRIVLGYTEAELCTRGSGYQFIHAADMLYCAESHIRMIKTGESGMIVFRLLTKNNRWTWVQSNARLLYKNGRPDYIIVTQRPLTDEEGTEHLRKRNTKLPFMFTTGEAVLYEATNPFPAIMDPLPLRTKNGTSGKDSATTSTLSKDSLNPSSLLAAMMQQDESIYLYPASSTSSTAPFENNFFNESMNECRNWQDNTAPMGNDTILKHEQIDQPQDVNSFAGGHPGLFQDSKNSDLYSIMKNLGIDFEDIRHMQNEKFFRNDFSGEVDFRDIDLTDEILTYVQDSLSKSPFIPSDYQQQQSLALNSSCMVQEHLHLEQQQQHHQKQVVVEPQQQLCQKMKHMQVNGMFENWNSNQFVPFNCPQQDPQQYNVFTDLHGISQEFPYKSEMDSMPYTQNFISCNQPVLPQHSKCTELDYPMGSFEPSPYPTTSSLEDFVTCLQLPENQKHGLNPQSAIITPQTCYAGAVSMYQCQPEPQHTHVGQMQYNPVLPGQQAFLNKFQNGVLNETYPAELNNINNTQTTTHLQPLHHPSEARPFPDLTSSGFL
Summary of the method: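 24 h compound exposure, 37C, HepG2-derived HG2L7.5c1 cells with DRE-responsive luciferase. Readouts: fluorescence viability, then luminescence at room temperature after 30 min.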

[18] = qHTS assay for small molecule disruptors of the mitochondrial membrane potential - cell viability (AID 720634; calls by dose curve; note: potency is the fitted concentration of half-maximal effect; nearly all actives have a fitted effect of over 20% in size)
Summary of the method: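 HepG2 cells, 2,000 per well, attached overnight, then treated 1 hr at 37 C, 5% CO2. Viability read as ATP by CellTiter-Glo luminescence after 30 min at room temperature. Read in the same wells as the m-MPI membrane-potential dye assay.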

[19] = qHTS assay to identify small molecule antagonists of the thyroid receptor (TR) signaling pathway - cell viability counter screen (AID 743064); details: GH3.TRE-Luc viability, CellTiter-Fluor, 24 h; activity change, negative = cytotoxic: at 70.3 µM (top of the series) unless noted; note: potency is the fitted concentration of half-maximal effect; nearly all actives have a fitted effect of over 50% in size
Summary of the method: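 Compounds were tested on GH3.TRE-Luc cells in the presence of T3 at 1 nM final. Following 23.5 h at 37 °C, cell viability was quantified by CellTiter-Fluor.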

[20] = tested on: thyroid hormone receptor (rat, GH3 cells); experiment: qHTS assay to identify small molecule agonists of the thyroid receptor (TR) signaling pathway (AID 743066; calls by dose curve; note: % is set by controls: 0 for no effect and ±100 for the full control effect); details: GH3.TRE-Luc cells, TR agonist luciferase, 24 h; activation: at 83.9 µM (top of the series) unless noted
[21] = target: Estrogen receptor (Homo sapiens) (UniProt P03372); experiment: qHTS assay to identify small molecule agonists of the estrogen receptor alpha (ER-alpha) signaling pathway (AID 743075; calls by dose curve; note: potency is the fitted concentration of half-maximal effect); details: HEK293 ER-alpha-UAS-bla, beta-lactamase FRET ratio, 18 h; activation: at 70.1 µM (top of the series)
[22] = qHTS assay to identify small molecule antagonists of the androgen receptor (AR) signaling pathway using the MDA cell line - cell viability counter screen (AID 743041; note: % is set by controls: 0 for no effect and ±100 for the full control effect; nearly all actives have a fitted effect of over 45% in size); details: MDA-kb2 viability, CellTiter-Fluor, 16 h, cells co-treated with R1881 androgen agonist; viability change, negative = cytotoxic: at 70.3 µM (top of the series)
Summary of the method: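 R1881-driven MDA-kb2 AR-luc cells, 3,000/well, were dosed with library compounds for 16 h; cell health came from CellTiter-Fluor fluorescence in the reporter wells.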
Tags give direction and shape of the fitted curve or compound fluorescence and quenching.

CCCOc1ccc2nc(NC(=O)OC)sc2c1
inconclusive: Potency [3] 4.22 µM | activity change, negative = inhibition [5] 17.4% | Potency [10] 10 µM [activator, partial curve]
inactive: Potency [6] | Potency (Aromatase (Homo sapiens))
active: Potency [1] 1.5 µM | Potency [2] 1.88 µM | Potency [4] 7.5 µM | Potency [7] 2.66 µM | Potency [8] 3.35 µM | Potency [9] 2.51 µM

C[C@@H]1C[C@H]2[C@@H]3CCC4=CC(=O)C=C[C@]4(C)[C@@]3(F)[C@@H](O)C[C@]2(C)[C@@]1(O)C(=O)COC(=O)c1cccc(S(=O)(=O)O)c1
inactive: Potency [6]
active: Potency [11] 0.338 µM [inconclusive] | Potency [15] 15 µM | Potency [9] 10 µM
inconclusive: Potency [2] 0.0841 µM [activator, full curve, poor fit] | ratio activity, negative = MMP loss [4] -15.4% | Potency [5] 0.477 µM [activator, full curve] | Potency [7] 23.7 µM [cytotoxic, partial curve, poor fit] | activity change, negative = inhibition [12] -34.6% | Potency [13] 1.9 µM [activator, full curve, poor fit] | Potency [14] 0.0674 µM [activator, full curve] | Potency [16] 0.237 µM [rising, full curve] | Potency [17] 13.3 µM [activator, partial curve]

CC(C(=O)O)c1ccc(N2Cc3ccccc3C2=O)cc1 (stereo unspecified)
inactive: Potency [1] | Potency [3]
inconclusive: Potency [18] 33.5 µM [cytotoxic, partial curve, poor fit] | Potency [4] 2.98 µM [single point] | Potency [5] 0.952 µM [activator] | Potency [19] 16.8 µM [rising, partial curve, poor fit] | activation [20] -6.48% [phenotype inactive] | Potency [21] 3.79 µM [fluorescent, full curve] | Potency (Aromatase (Homo sapiens)) 21.1 µM [inhibitor, partial curve, poor fit] | Potency [9] 0.1 µM [activator, full curve, poor fit]
active: Potency [2] 0.596 µM | Potency [15] 0.119 µM | Potency [16] 16.8 µM

COc1ccc(CCNC[C@H](O)c2ccc(O)cc2)cc1OC
inconclusive: ratio activity, negative = MMP loss [4] -5.64% | Potency [17] 23.7 µM [activator, partial curve] | Potency [9] 35.5 µM [activator, single point]
inactive: Potency [22]
